Measured values from PubChem BioAssay AID493035 (The Scripps Research Institute Molecular Screening Center, 2011).
Screen size: about 2,000 compounds; about 45 (2%) were called active.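 How the source made its calls: active means inhibition above the mean of all tested compounds plus 3 SD (cut at about 49% in these data); inactive means the rest.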 Some of the results follow.

target: Perilipin-5 (Homo sapiens) + 1-acylglycerol-3-phosphate O-acyltransferase ABHD5 (Homo sapiens) (UniProt Q00G26+Q8WTS1); assay: ABHD5-PLIN5 interaction inhibitors, pilot screen, cell lysate, split luciferase complementation, luminescence, NIH validation set (AID 493035);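 further: 0% = DMSO only wells while the 100% control is not stated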; details: split G. princeps luciferase complementation, lysates, 4 h; at 7.9 µM, active compounds read high
Chain of UniProt Q00G26 (Q00G26 whole entry, looked up): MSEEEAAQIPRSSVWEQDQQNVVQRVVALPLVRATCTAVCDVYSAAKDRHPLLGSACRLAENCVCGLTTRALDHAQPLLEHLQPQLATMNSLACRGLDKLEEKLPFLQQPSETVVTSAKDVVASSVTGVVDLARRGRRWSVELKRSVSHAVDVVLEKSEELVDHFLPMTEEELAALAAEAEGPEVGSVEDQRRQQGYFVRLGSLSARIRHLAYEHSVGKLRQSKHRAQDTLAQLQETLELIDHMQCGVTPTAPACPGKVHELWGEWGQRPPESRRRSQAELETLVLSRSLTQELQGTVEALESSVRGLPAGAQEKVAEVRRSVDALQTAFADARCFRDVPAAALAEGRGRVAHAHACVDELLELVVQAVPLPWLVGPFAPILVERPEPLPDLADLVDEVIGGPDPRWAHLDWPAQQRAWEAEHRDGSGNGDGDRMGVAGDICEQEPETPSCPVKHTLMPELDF
Chain of UniProt Q00G26 (Q8WTS1 whole entry, looked up): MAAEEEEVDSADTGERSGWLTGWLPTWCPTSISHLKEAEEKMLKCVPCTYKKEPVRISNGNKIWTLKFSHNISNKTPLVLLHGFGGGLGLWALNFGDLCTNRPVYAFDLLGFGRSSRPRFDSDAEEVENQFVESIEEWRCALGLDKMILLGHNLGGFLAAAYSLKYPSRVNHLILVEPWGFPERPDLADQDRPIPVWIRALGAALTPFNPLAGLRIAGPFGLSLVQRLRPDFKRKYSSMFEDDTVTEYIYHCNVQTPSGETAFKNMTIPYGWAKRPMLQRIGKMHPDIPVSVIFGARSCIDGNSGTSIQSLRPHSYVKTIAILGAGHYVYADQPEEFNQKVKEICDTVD

SMILES	inhibition
COc1ccccc1C(CC(=O)Nc1ccccc1C)c1ccc(OC(C)C)cc1 (stereo not given)	inactive: 1.65%
COc1ccc(CCNC(=S)NC(=O)/C=C/c2ccc(C)cc2)cc1OC	inactive: 11.2%
N/C(=N\OC(=O)/C=C/c1ccccc1)c1ccc(Br)cc1	inactive: -11.8%
CN(C)CCC(c1ccccc1)c1ccccn1 (stereo not given)	inactive: -1.36%
Nc1ccc2nc(Cc3ccccc3)[nH]c2c1	inactive: 1.14%
CC1(C)C(=O)OC(C(=O)c2ccc(Cl)cc2)C(C)(C)C1=O (stereo not given)	inactive: -5.91%
O=C(O)CCCCCCNC(=O)c1cncc(O)c1	inactive: -6.1%
CC1(C)Cc2ccccc2-c2nc(-c3ccccc3)oc(=O)c21	inactive: -6.63%
COc1c(C=O)c(CCN(C)C(=O)c2ccc(F)cc2)cc2c1OCO2	inactive: 3.02%
CCOC(=O)c1cccc(P(C)(C)=O)c1	inactive: -0.43%
CCOCCCNCc1cn(-c2ccc(F)cc2F)nc1-c1ccccc1C	inactive: -0.78%
C=CC1=C(C(=O)O)N2C(=O)C(NC(=O)Cc3ccccc3)C2SC1 (stereo not given)	inactive: 25.2%
C=CCc1ccccc1OCC(O)CNC(C)C (stereo not given)	inactive: 0.63%
O=C(Cc1ccccc1)NNC(=O)Cc1ccccc1	inactive: -4.46%
CCCCOc1ccc(CC(=O)NO)cc1	inactive: 35.2%
CC(=O)OC(C)C[N+](C)(C)C (stereo not given)	inactive: -12.9%
Cc1ccccc1OCC(O)CN1CCN(C)CC1 (stereo not given)	inactive: -6.87%
CC(=O)Nc1ccccc1C(=O)C(=O)Nc1ccccc1	inactive: 2.49%
COc1ccc(C2NC(=O)c3ccccc3O2)c(OC)c1OC (stereo not given)	inactive: 5.63%
O=C1CCCN1C(=O)CCC(=O)N1CCCC1=O	inactive: 4.49%
Cc1cccc2c(C(=O)O)cc(-c3cccnc3)nc12	inactive: 8.76%
O=C(CC(NC(=O)OCc1ccccc1)C(=O)O)OCc1ccccc1 (stereo not given)	inactive: 6.45%
O=C(O)CCCCCNC(=O)Nc1ccc2c(c1)OCCO2	inactive: 4.57%
CC(C)(C)C(=O)NC(=S)Nc1sc2c(c1C(N)=O)CCC2	inactive: 5.52%
COC(=O)C1=C(C)N(Cc2ccco2)C(=O)/C1=C\c1ccc([N+](=O)[O-])cc1	active: 84.5%

SMILES	inhibition
Cc1ccc(S(=O)(=O)N[C@@H](C)C(=O)N2CCC(C(=O)N3CCC[C@H]3C(=O)O)CC2)cc1	inactive: -6.48%
CC[C@]1(O)C[C@@H]2CN(CCc3c([nH]c4ccccc34)[C@@](C(=O)OC)(c3cc4c(cc3OC)N(C)[C@H]3[C@@](O)(C(=O)OC)[C@H](OC(C)=O)[C@]5(CC)C=CCN6CC[C@]43[C@@H]65)C2)C1	inactive: 0.15%
CN(C)CCOC(c1ccccc1)c1ccccc1 (tested in a mixture with another compound)	inactive: 1.43%
CCN(CCCc1ccccc1)CCCc1ccccc1	inactive: 8.07%
COc1ccc(C2c3c(n[nH]c3C)CC(C)(O)C2C(C)=O)cc1OC (stereo not given)	inactive: 0.45%
CC12CCC(C(=O)N(CCC#N)CCC#N)(CC1=O)C2(C)C (stereo not given)	inactive: -4.7%
CC(C)COc1ccc(Cc2cnc(N)nc2N)cc1	inactive: 0%
CCN(CC)C(=O)N1CCN(C)CC1	inactive: 15.6%
Nc1ccc(N=Nc2ccccc2)c(N)n1	inactive: 5.84%
OCC(O)CN1CCN(c2ccccc2)CC1 (stereo not given)	inactive: 3.21%
CC(C)C[C@H](NC(=O)NC(C)C)C(=O)O	inactive: -0.17%
CN(C)CCC(c1ccc(Cl)cc1)c1ccccn1 (stereo not given)	inactive: 0.44%
COc1ccc(C(=O)c2oc3ccc(Br)cc3c2NC(C)=O)cc1	inactive: 13.6%
O=C(CC1(O)C(=O)Nc2ccccc21)c1ccccc1O (stereo not given)	inactive: 1.58%
COc1ccc(-c2coc3cc(O)cc(O)c3c2=O)cc1	inactive: 2%
COc1ccccc1C1C(C#N)=C(N)Oc2c1oc(CO)cc2=O (stereo not given)	inactive: -4.43%
CC1(C)CC(=O)C(C(=O)CCCCC(=O)C2C(=O)CC(C)(C)CC2=O)C(=O)C1	inactive: -7.3%
CCOC(=O)C1C(=O)OC(C)(C)C1C(C)C(=O)c1ccc(C)cc1 (stereo not given)	inactive: 3.7%
O=C(Cc1cccc2ccccc12)N1CC[C@@]2(O)CCCC[C@H]2C1	inactive: -4.58%
CCOC(=O)c1ccccc1NC(=O)c1ccc(F)cc1	inactive: -5.05%
Cc1nc(N)nc2c1CCCC2	inactive: -5.32%
CC[n+]1c(C)sc2cc(C)ccc21	inactive: 34.1%
CCc1cc(=O)oc2cc3occ(-c4ccc(OC)c(F)c4)c3cc12	inactive: 14.2%
Cc1ccc(SCC(=O)Nc2nccs2)cc1	inactive: 10.4%
COc1ccc(CCN(C)Cc2nc(Cc3ccc(OC)c(OC)c3)no2)cc1OC	inactive: -3.3%
